Experimental data reported in patent publication US20090291088A1, “THERAPEUTIC COMBINATIONS OF ANTI-IGF-1R ANTIBODIES AND OTHER COMPOUNDS” (Biogen Idec MA Inc., priority 2008, published 2009).

Tests used:
hIGF-1R-Fc = target: T1, hIGF-1R-Fc (Homo sapiens, UniProt P08069); experiment: IGF-1 and IGF-2 blocking ELISA-based competition assay; assay type: binding
T1 construct: (3) human IGF-1R(1-903)-Fc (hIGF-1R-Fc, Biogen Idec); host or cells: CHO
Experimental: hIGF-1R-Fc was biotinylated using EZ-Link Sulfo-NHS-LC-Biotin according to the protocol provided by the manufacturer (Pierce Cat. No. 21335). Biotinylated human IGF-1R-Fc at 5 μg/ml was added to the wells of SigmaScreen streptavidin-coated 96-well plates (Sigma, Cat. No. M5432-5EA; Sigma-Aldrich Corp. (St. Louis, Mo., USA)) at 100 μL/well and incubated overnight at 2-8° C. The plates were then washed four times with 200 μL/well PBST. […] Dilutions were made from 1.3 μM to 10 pM for M13-C06 and M14-C03, from 5.2 μM to […] for M14-G11, and from 2.6 μM to 10 pM for both P1E2 and αIR3. Human IGF-2 His was prepared at 320 nM in PBST, 1.0 mg/ml BSA. The antibodies were serial diluted (from […] to 5 pM for M13-C06 and M14-C03, from 5.2 μM to 5 pM for M14-G11 and αIR3, and from 5.2 μM to 20 pM for P1E2) using a solution of 320 nM IGF-2 His. The dilutions were added to the plates in duplicate at 100 μL/well and the plates were incubated at RT for 1 hour. The plates were then washed four times with 200 μL/well PBST. An HRP-conjugated anti-Histag antibody (Penta-His HRP Conjugate, QIAGEN, Cat. No. 1014992) was diluted 1:1000 in PBST and added to plates at 100 μL/well, and the plates were incubated at RT for one hour. The plates were then washed four times with 200 μL/well PBST. SureBlue Reserve TMB Microwell Peroxidase Substrate (KPL, Cat. No. 53-00-01) was added to plates at 100 μL/well followed by 1% phosphoric acid at 100 μL/well once the desired reaction was observed. The absorbance of each well was determined at 450 nm, and the results were normalized and plotted against the log of antibody concentration.

human INSR(28-956)-His10 = target: T2, human INSR(28-956)-His10 (Homo sapiens, UniProt P06213); experiment: SPR, receptor ectodomain injected over immobilized antibodies: INSR; assay type: binding; conditions: full-length fully human antibodies; up to 2 μM receptor
T2 construct: human INSR(28-956)-His10 (INSR (R&D systems)); purchased R & D Systems 1544-IR
Experimental: SPR analyses were performed using a Biacore3000. The instrument was set to 25° C. and assays performed with running buffer HBS-EP pH 7.2 purchased from Biacore (Biacore, Cat. No. BR-1001-88). The fully human antibodies, M13-C06, M14-C03, and M14-G11 were immobilized to ˜10,000 RU on Biacore CM5 Research Grade Sensor Chip surfaces using the standard NHS/EDC-amine reactive chemistry according to protocols supplied by Biacore. For immobilization, the antibodies were diluted to 40 μg/mL in a 10 mM Acetate pH 4.0 buffer. To investigate the relative kinetics of association and dissociation of the full-length ectodomains of human IGF-1R(1-902)-His10 (hIGF-1R-His10 (R&D systems)) and human INSR(28-956)-His10 (INSR (R&D systems)) to each of the human antibodies, increasing concentrations of hIGF-1R-His10 or INSR were injected over the sensorchip surfaces. The hIGF-1R-His10 concentration series ranged from 1.0 nM to 250 nM while the INSR concentrations ranged from 1.0 nM to 2 μM. All antibody surfaces were reliably regenerated with 100 mM Glycine, pH 2.0. […] Flow rates were 20 μl/min. (“His10” denotes a 10-residue histidine tag on the C-terminus of the constructs.)

murine IGF-1R = target: T3, murine IGF-1R (Mus musculus, UniProt Q60751); experiment: Binding to murine IGF-1R expressing CHO cells
T3 construct: expressed in transfected cells; host or cells: CHO cells
T3 sequence (Q60751 31-737 limits assumed): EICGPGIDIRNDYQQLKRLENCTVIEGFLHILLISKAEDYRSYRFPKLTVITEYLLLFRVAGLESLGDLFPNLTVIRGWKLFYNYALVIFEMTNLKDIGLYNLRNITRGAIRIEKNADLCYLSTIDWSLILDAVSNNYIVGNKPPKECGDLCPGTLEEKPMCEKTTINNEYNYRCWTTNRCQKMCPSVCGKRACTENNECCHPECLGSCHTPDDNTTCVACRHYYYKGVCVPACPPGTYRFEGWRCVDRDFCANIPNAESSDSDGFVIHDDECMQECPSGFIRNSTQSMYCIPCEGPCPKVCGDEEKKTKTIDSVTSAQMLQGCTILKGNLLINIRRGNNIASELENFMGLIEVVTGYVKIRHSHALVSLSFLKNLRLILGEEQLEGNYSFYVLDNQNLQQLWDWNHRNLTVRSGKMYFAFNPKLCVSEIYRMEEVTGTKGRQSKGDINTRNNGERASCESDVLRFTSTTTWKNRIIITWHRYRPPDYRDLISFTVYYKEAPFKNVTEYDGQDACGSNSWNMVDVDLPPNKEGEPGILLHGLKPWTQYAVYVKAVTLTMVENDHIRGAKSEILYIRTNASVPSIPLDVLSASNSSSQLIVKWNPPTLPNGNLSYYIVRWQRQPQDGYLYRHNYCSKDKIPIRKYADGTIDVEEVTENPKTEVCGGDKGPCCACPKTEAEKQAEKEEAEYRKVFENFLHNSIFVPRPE
T3 sequence (Q60751 742-1373 limits assumed): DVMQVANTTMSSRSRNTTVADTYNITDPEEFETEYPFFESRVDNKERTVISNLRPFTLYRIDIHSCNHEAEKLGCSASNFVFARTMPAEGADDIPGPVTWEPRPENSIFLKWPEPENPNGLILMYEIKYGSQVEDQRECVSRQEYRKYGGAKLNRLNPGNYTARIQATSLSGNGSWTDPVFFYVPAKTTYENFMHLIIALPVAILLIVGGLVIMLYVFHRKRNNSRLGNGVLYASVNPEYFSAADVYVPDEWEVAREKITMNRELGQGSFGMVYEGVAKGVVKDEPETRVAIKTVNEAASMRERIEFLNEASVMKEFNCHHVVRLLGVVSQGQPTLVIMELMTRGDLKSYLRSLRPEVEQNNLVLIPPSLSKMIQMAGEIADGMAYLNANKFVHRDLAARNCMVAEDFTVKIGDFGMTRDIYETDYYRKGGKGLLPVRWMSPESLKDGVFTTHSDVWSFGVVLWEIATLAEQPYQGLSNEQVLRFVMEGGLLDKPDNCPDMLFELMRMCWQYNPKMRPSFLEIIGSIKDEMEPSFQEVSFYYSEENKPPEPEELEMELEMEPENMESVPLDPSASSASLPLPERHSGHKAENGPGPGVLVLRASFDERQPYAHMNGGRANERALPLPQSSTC
Experimental: The ability of anti-human IGF-1R antibodies to recognize the IGF-1R from non-human primates was tested. First Rhesus and cynomolgus monkey IGF-1R was cloned and expressed in CHO cells. The binding of all antibodies was determined by flow cytometry and confirmed by confocal microscopy.

NCI-H23 = experiment: IGF driven tumor cell growth, CELL TITER-GLO, H-23; assay type: cell-based, human; conditions: NCI-H23 lung tumor cell line
Experimental: NCI-H23, Calu-6, Colo-205, Panc-1, BxPC-3 (ATCC) tumor lines were purchased from ATCC. Cell lines were grown in complete growth medium containing RPMI-1640 (ATCC), 10% fetal bovine serum (Irvine Scientific Inc.) and 50 μg/ml of Gentamycin (Gibco, Invitrogen). Trypsin-EDTA solution (Sigma) was used for removal of adherent cells from culture vessels. Phosphate buffered saline, pH 7.2, was from MediaTech Inc The 96-well clear bottom plates for luminescent assay was purchased from Wallac Inc.
Cells grown to 80% monolayers were, trypsinized, washed, resuspended and plated into 96-well plates in 200 μl of 2% growth medium at 8×10^3 cells/well for NCI-H23 and Colo-205 cells; and 5×10^3 cells/well for Calu-6, Panc-1 and BxPC-3 cells. After 24 hours, the culture medium was replaced with 100 μl of serum free medium (SFM), and 50 μl of serially diluted antibodies at 4× concentration was added. […] All treatments were done in triplicates. Cell growth was measured using the CELL TITER-GLO™ Luminescent Cell Viability Assay (Promega, Madison, Wis.). […] Luminescence was detected on Wallac (Boston, Mass.) plate reader.
The ability of the selected murine antibodies to inhibit IGF/IGF-1R dependent in vitro growth of several human tumor lines (Lung, H-23, Calu-6; Pancreas, BxPc-3, Panc-1, MiaPaCa and Colon Colo205) was measured by a proliferation assay described in Example 13. […]

B1: M14-G11: anti-IGF1-R antibody, competitive blocker of IGF-1 and IGF-2 (antibody, V domains shown)
VH: EVQLLESGGGLVQPGGSLRLSCAASGFTFSNYPMYWVRQAPGKGLEWVSRISSSGGRTVYADSVKGRFTISRDNSKNTLYLQMNSLRAEDTAVYYCARDRWSRSAAEYGLGGYWGQGTLVTVSS
VL: DIQMTQSPDSLAVSLGERATINCKSSQSVLYSSNNKNYLAWYQQKPGQPPKLLIYLASTRESGVPDRFSGSGSGTDFTLTISSLQAEDVAVYYCQQYYSTWTFGQGTKVEIK
modifications: Antibody variable heavy chain sequence; Antibody variable light chain sequence
- blocking of IGF-1 binding to IGF-1R (hIGF-1R-Fc; 320 nM IGF-1 His): block both IGF-1 and IGF-2 in a competitive fashion
- blocking of IGF-2 binding to IGF-1R (hIGF-1R-Fc; 320 nM IGF-2 His): block both IGF-1 and IGF-2 in a competitive fashion
- blockade of both ligands (IGF-1 and IGF-2) (hIGF-1R-Fc; saturating levels of antibody): 100%
- binding of INSR to immobilized antibody surface (human INSR(28-956)-His10): little binding activity

B2: M14-G11.G4.P: full-length human IgG4.P version of Fab M14-G11 (antibody, V domains shown)
VH: B1 VH
VL: B1 VL
- binding to murine IGF-1R expressing CHO cells (murine IGF-1R): binding

B3: M13-C06.G4.P.agly: full-length hinge-modified aglycosylated human gamma 4, kappa antibody with the binding domain of Fab M13-C06 (antibody)
heavy: EVQLLESGGGLVQPGGSLRLSCAASGFTFSIYRMQWVRQAPGKGLEWVSGISPSGGTTWYADSVKGRFTISRDNSKNTLYLQMNSLRAEDTAVYYCARWSGGSGYAFDIWGQGTMVTVSSASTKGPSVFPLAPCSRSTSESTAALGCLVKDYFPEPVTVSWNSGALTSGVHTFPAVLQSSGLYSLSSVVTVPSSSLGTKTYTCNVDHKPSNTKVDKRV[human IgG4 Fc with S228P T299A (EU numbers) not written out]
light: DIQMTQSPLSLSASVGDRVTITCQASRDIRNYLNWYQQKPGKAPKLLIYDASSLQTGVPSRFGGSGSGTDFSFTIGSLQPEDIATYYCQQFDSLPHTFGQGTKLEIKRTVAAPSVFIFPPSDEQLKSGTASVVCLLNNFYPREAKVQWKVDNALQSGNSQESVTEQDSKDSTYSLSSTLTLSKADYEKHKVYACEVTHQGLSSPVTKSFNRGEC
- inhibition of IGF-1 and IGF-2 driven cell proliferation in H-23 (NCI-H23): showed inhibition
